For this assay, the target named is T1, his-muCD8a-4-1BBL^ECD fusion protein (mouse, UniProt P01731 28-194; P41273 fragment).
T1 construct: also called 4-1BB ligand protein; not shown: his-tag on the N side
Description: ELISA: 4-1BB-hFc coated at 0.5 µg/mL, his-muCD8a-4-1BBL titrated, detection by biotin anti-mouse CD8a and streptavidin-HRP, OD450.

B1: hFc-tagged human 4-1BB extracellular domain protein (4-1BB-hFc) (Fc fusion)
chain: not shown
notes: also called immunogen A; 4-1BB^ECD-hFc; not shown: human IgG Fc fragment (hFc) of the pCpC vector
For B1, the binding result is “binds”.

These data come from patent US20200347144A1 (SHANGHAI HYAMAB BIOTECH, published 2020).
